This is one part of the list.

The subject of this experiment is T1, C. trachomatis L2/434/Bu expressing GFP (CTL2-GFP).
T1 construct: L2/434/Bu GFP intracellular growth in HeLa cells
The arrangement: species or system HeLa; C. trachomatis total inclusion area by high-content imaging, normalised to DMSO. The note with it: total inclusion area; 28.5 h, 10 µM; inhibitor. An outline of the steps:
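Post-fluorescence-read fixation, DNA staining with Hoechst and high-content imaging; GFP inclusion area and number per well, and nuclei counts, used as proxies for bacterial growth and host viability.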
With `CN1CCN(C(=O)Cn2cc(C(=O)Nc3ccc(F)cc3)ccc2=O)C(c2ccccc2)C1` (stereo not drawn) [CBK286050], the “% of control remaining” value worked out at 135.749. The figure for `NCCn1cc(C(=O)N2Cc3cnn(Cc4ccc(F)cc4)c3C2)nn1` [CBK307461] is 116.402. Take `Clc1ccc(N2CCN(c3cnc4ccccc4n3)CC2)cc1Cl` [CBK066903]: the “% of control remaining” value is 101.175.

In the case of `O=C(O)c1ccccc1N1C(=O)C2CC=C(Cl)CC2C1=O` (stereo not drawn) [CBK287007], the “% of control remaining” value came to 116.54. The figure for `COc1ccc(-c2[nH]c(=S)ncc2-c2ccccc2)c(O)c1` [CBK288447] is 80.5867; for `COc1ccc(-c2cc(C(=O)NCCS(C)(=O)=O)cnc2-c2ccc(Cl)cc2)cc1` [CBK037620] it is 82.224.

Regarding `Cc1ccc(SCCCNCCN(C)C)cc1` [CBK267807C], the “% of control remaining” value is on record as 110.232. The figure for `COc1ccc(C(C)NC(=O)c2cn[nH]c2-c2ccc(Cl)cc2)cc1` (stereo not drawn) [CBK288065] is 93.0663.

On to `COc1ccc(-c2nc(C3CCN(C(=O)NC(C)(C)C)CC3)n3ccccc23)cc1` [CBK047080], for which the “% of control remaining” value stood at 92.5993.

As for `COc1cccc(C(=O)NCCC(=O)N2CCc3c(nc[nH]c3=O)C2)c1` [CBK307231], the “% of control remaining” value is 37.9084. With `COc1ccccc1N1C(=O)CC(N2CCC(C(N)=O)(N3CCCCC3)CC2)C1=O` (stereo not drawn) [CBK265533], the “% of control remaining” value was 114.54. Take `CS(=O)(=O)N(Cc1ccccc1)c1ccc(C(=O)N/N=C/c2ccccc2C(F)(F)F)cc1` [CBK262711]: the “% of control remaining” value is on record as 101.172. The figure for `CC(=O)N[C@@H](Cc1ccccc1)C(=O)N1CC[C@H]2NC(=O)[C@H](Cc3ccccc3)NC(=O)C3(C/C=C/C[C@@H]2C1)CCOCC3` [CBK292190] is 122.745; for `COCCCNc1nc2c(-c3ccc(Cl)cc3)nnn2c2ccccc12` [CBK287770] it is 80.7154; for `Cc1ccc(C2=CCN(CC(=O)Nc3nc(C)c(C)s3)CC2)o1` [CBK283607] it is 87.2316. Consider `CN(C)S(=O)(=O)N(CC(=O)NCc1ccco1)c1ccccc1` [CBK267971], for which the “% of control remaining” value came out at 95.5025. As for `NNC(=O)c1ccc(Oc2ccc(C(=O)NN)cc2)cc1` [CBK260995], the “% of control remaining” value is listed as 96.3315. With `COc1cc(C(C)NC2CCN(c3nc(C)cs3)CC2)ccn1` (stereo not drawn) [CBK304247] the figure was 71.3394; with `COC(=O)c1c(NC(=O)C(=O)NCc2ccccn2)sc2c1CCCC2` [CBK269505], 49.077. With `CN(c1ccccc1)C1CCN(c2nc3c(cnn3C)c(=O)[nH]2)CC1` [CBK305215] the figure was 46.0068; with `O=C(COc1ccccc1)Nc1ccccc1Sc1ncnc2sc3c(c12)CCCC3` [CBK266171], 125.49. Consider `CCOc1sc(=S)n(C)c1C(C)=O` [CBK019515], for which the “% of control remaining” value was found to be 63.3063.

With `CC(C)c1cc(C(=O)N[C@@H]2CCOC[C@H]2Oc2ccc(CO)cc2)on1` [CBK306554], the “% of control remaining” value is 44.2405. As to `CC(=O)Nc1cc(C(=O)NCCc2ccccc2)ccc1S(=O)(=O)c1ccc(C)cc1` [CBK071771], the “% of control remaining” value came out at 99.5172. On to `C[C@@H]1CN(Cc2ccco2)CCN1C(=O)c1nccc2ccccc12` [CBK285489], for which the “% of control remaining” value came to 92.6064. On to `O=c1c(Cl)c(O)c2ccccc2n1Cc1ccccc1` [CBK291164], for which the “% of control remaining” value turned out to be 102.371. With `COc1ccc(CC(=O)NC2CC(C)(C)Cc3c2cnn3C)cc1` (stereo not drawn) [CBK282886] the figure was 124.18; with `CC(C)OC(=O)N1CCC(N(C)Cc2ccc(-c3ccc(S(C)(=O)=O)cc3)nc2)CC1` [CBK165261T], 97.5863. With `CCc1nc2ccc(C(=O)Nc3cccc(OC)c3)cn2c1N(C)Cc1cccs1` [CBK145522], the “% of control remaining” value is reported as 99.338. On to `O=C1NC/C=C/CC2(CCN(Cc3c[nH]c4ccccc34)CC2)C(=O)NCCOc2ccccc21` [CBK292085], for which the “% of control remaining” value is listed as 120.359.

Take `CCOC(=O)C1(C)C=C(Nc2cccc(C)c2)C(=O)N1c1ccccc1` (stereo not drawn) [CBK263757]: the “% of control remaining” value is on record as 111.973.

Turning to `CCc1cc(S(=O)(=O)NC2CC(C)(C)NC(C)(C)C2)ccc1OC` [CBK270097], the “% of control remaining” value stood at 78.0686. With `O=S(=O)(Nc1cccc(-c2nnn[nH]2)c1)c1cc(Br)c(Cl)s1` [CBK160374] the figure was 105.092. The figure for `Cc1ccc(S(=O)(=O)NC(=O)Nc2cccc(NC(=O)NS(=O)(=O)c3ccc(C)cc3)n2)cc1` [CBK296102] is 100.304; for `O=C1NCC2(CCN(C(=O)c3ccco3)CC2)Oc2ccccc21` [CBK282919] it is 75.4952. With `Cn1cc(CCN2CCC(C(=O)NC(=O)Nc3ccccc3)CC2)c2ccccc21` [CBK034867] the figure was 80.942. `Cc1ccc2nsnc2c1NC(=O)Cc1cccc2ccccc12` [CBK266279]: the “% of control remaining” value stood at 136.15. For `N/C(=N/OC(=O)c1ccc2nsnc2c1)c1ncon1` [CBK263847], the “% of control remaining” value came to 53.1618. The figure for `C=CCNC(=O)C1CCCN(c2nc3ccccc3n2C)C1` (stereo not drawn) [CBK282872] is 87.5031; for `O=C(Nc1cccc(N2CCNCC2)c1)c1ccccc1` [CBK028255T] it is 113.002; for `c1nc(Nc2ccc3[nH]ccc3c2)cc(-c2ccc(N3CCOCC3)cc2)n1` [CBK090851] it is 57.3587. The figure for `Cc1cc(OCC(=O)N2CCC(C(=O)Nc3ccccc3)CC2)no1` [CBK305067] is 88.5527; for `CCc1noc(C)c1C(=O)N1CCN(C(C#N)C2CCCCC2)CC1` (stereo not drawn) [CBK304916] it is 81.6603.

For `CCCCNC(=O)Nc1ncc(-c2ccc(C#N)cc2)nc1-c1ccc(C(=O)N2CCOCC2)cc1` [CBK105766], the “% of control remaining” value came to 79.7981. With `Cc1ccc(NC(=O)C(=O)NCCCN2CCOCC2)cc1C` [CBK264836] the figure was 99.236; with `CC(=O)Nc1ccc(S(=O)(=O)N2CCN(c3ccc(C(F)(F)F)cc3[N+](=O)[O-])CC2)cc1` [CBK264293], 91.751. For the molecule `CC(=O)Nc1cccc(NC(=O)N2CCCCC2CO)c1` (stereo not drawn) [CBK156181], the “% of control remaining” value is given as 102.502. The figure for `COc1cc(OC)nc(C(NC(=O)C2CCN(C(=O)c3ccno3)CC2)c2ccc(Cl)cc2)n1` (stereo not drawn) [CBK060169] is 100.616. For `O=C1CC(SCCc2nc3ccccc3[nH]2)C(=O)N1c1cccc(F)c1` (stereo not drawn) [CBK266671], the “% of control remaining” value is given as 114.483. The figure for `O=C(COC(=O)C1CCN(S(=O)(=O)c2cccc3cccnc23)CC1)c1ccc([N+](=O)[O-])cc1` [CBK264412] is 110.902. For `O=C(O)c1cc(S(=O)(=O)Nc2ccc3nc(N4CCCC4)sc3c2)ccc1Br` [CBK296710], the “% of control remaining” value worked out at 75.4487. In the case of `Cc1cc2c(cc3c(=O)n(CC(=O)NC4CC4)nc(C)n32)s1` [CBK284067], the “% of control remaining” value stood at 90.2458. Turning to `Cc1cccc(-c2ncc(C(=O)Nc3nccs3)cc2-c2ccco2)c1` [CBK037427], the “% of control remaining” value was 88.0499. As for `COc1ccc(-c2[nH]c3ncccc3c2CN2CCSCC2)cc1` [CBK285338], the “% of control remaining” value was determined as 87.1858. `COC(=O)c1ccccc1Oc1nc(OC)cc(OC)n1` [CBK092217]: the “% of control remaining” value is given as 104.837.

Take `CC(C)Cn1cncc1CN1C(=O)CC2(CCCC2)CC1=O` [CBK306600]: the “% of control remaining” value was 95.0665. With `CCCC(=O)Nc1nc(-c2ccc(C)cc2)c(C)s1` [CBK287763] the figure was 80.6832. As for `CCC(C(=O)NCCCN1CCOCC1)c1ccccc1` (stereo not drawn) [CBK265103], the “% of control remaining” value turned out to be 124.535. `CC(C)(C)OC(=O)N1CCC(CNS(=O)(=O)c2cc(Cl)sc2Cl)CC1` [CBK086018]: the “% of control remaining” value was determined as 97.2021. The figure for `Cc1cc(C(=O)NCCCC2CCOC2)c2cccc(Cl)c2n1` (stereo not drawn) [CBK282550] is 94.7845; for `CC1CCCC(C)N1C(=O)C1CCCCC1C(=O)O` (stereo not drawn) [CBK026624] it is 100.839. On to `COc1ccc(-c2cc(CC3(NC(C)=O)COC3)no2)cc1` [CBK289428], for which the “% of control remaining” value is recorded as 95.1683. With `COc1cc(C(C)=O)ccc1OCC(O)Cn1c(=O)n(-c2ccccc2)c(=O)c2ccccc21` (stereo not drawn) [CBK296677] the figure was 69.6641; with `O=C(CCC1CCCC1)n1ccn(CCc2cccs2)c1=O` [CBK106611], 91.3299; with `CNS(=O)(=O)c1cccc(C(C)NC(=O)N2CCC(COC)CC2)c1` (stereo not drawn) [CBK304087], 40.5314. With `CC(C)n1cnc2ccc(-c3noc(-c4nccc5ccccc45)n3)cc21` [CBK288617] the figure was 83.7005. With `S=c1[nH]nc(CSc2nc3ccccc3[nH]2)n1-c1ccccc1` [CBK267133] the figure was 88.4153; with `C=CCn1c(Cc2csc(NC(=O)c3ccc(C)c(F)c3)n2)n[nH]c1=S` [CBK295307], 119.859; with `CC(C)(Oc1cccc2ccccc12)C(=O)O` [CBK012409], 108.887. `CN(C)CCCNC(=O)CCc1ccccc1` [CBK263806]: the “% of control remaining” value came out at 108.569. With `CC(C)CNc1nc(-c2cc(C(F)(F)F)cc(C(F)(F)F)c2)cnc1N` [CBK063708] the figure was 93.2314. With `COc1ccc2c(c1)C(NC(=O)C1CCCN(C)C1)CC(C)(C)O2` (stereo not drawn) [CBK307631] the figure was 66.1606. With `O=C1NC2=NOCCC2=CN1[C@H]1C[C@@H](O)[C@@H](CO)O1` [CBK201192] the figure was 92.238. For `O=C(NCc1ccco1)[C@H]1CN2CCC1C[C@@H]2Cn1cc(CO)nn1` (stereo partly drawn) [CBK289080], the “% of control remaining” value is reported as 93.5677. The figure for `CC(c1ccccc1)N1CCn2c(nc3cc(NC(=O)COc4ccccc4)ccc32)C1` (stereo not drawn) [CBK268033] is 97.7084; for `COc1ccc(C)cc1S(=O)(=O)N(CC(=O)O)c1ccc(C)c(Cl)c1` [CBK269655] it is 76.9572. Turning to `COc1cc(C(=O)N2CCC3(CC2)CC(=O)c2ccc(-c4ccc(NS(C)(=O)=O)cc4)cc2O3)cc(OC)c1C` [CBK170163], the “% of control remaining” value came to 103.151.

Consider `CCc1ccc(CN2CCC(Oc3ccccc3F)(C(=O)O)CC2)nc1` [CBK307528], for which the “% of control remaining” value turned out to be 74.3514.

The values are drawn from PMC12040169 (PLOS Biology, 2025).
